Reference: article PMC2246632 (EMBO Reports, 2007)

Target: the molecule itself
Assay: SEC

B1: Cep3Δ (domain or fragment)
chain: not shown
modifications: selenomethionine-substituted protein (used to solve the crystal structure)
stoichiometry N: 2
